# Measurements reported in PubChem BioAssay (Tox21).
# “And” between values parts separate entries of the source, which are not always exact repeats. Identical values can stand only once. Inconclusive results, whose numbers are uncertain, are shown with a selection of clear calls. Where the call is inconclusive, the potency comes from a doubtful curve fit. A structure can be active in one record and inactive in another. The source made the active and inactive calls. Calls follow the shape of the dose curve; as a rule, active = well fitted cell-killing curve with a large enough effect in the repeat runs; inconclusive = weak or mixed curves, or effect the other way; inactive = no such curve, though single readings can be large or run the other way.
# Assay: qHTS assay to identify small molecule antagonists of the thyroid receptor (TR) signaling pathway - cell viability counter screen (AID 743064); also: nearly all actives have a fitted effect of over 50% in size
# Settings: GH3.TRE-Luc viability, CellTiter-Fluor, 24 h; series mostly up to 70.3 µM
# Method in brief: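 In-well cytotoxicity read by CellTiter-Fluor (30 min, 37 C) following 23.5 h exposure of GH3 cells bearing a TRE-luciferase sensor. Compounds were added alongside 1 nM (final) T3 to drive TR transactivation.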
# Potency is read from the fitted curve at half-maximal effect; tags tell the direction and shape of the fitted curve.
row,Structure (SMILES),Potency
1,O=C(Cl)OCc1ccccc1,"inconclusive: 61.7 µM [rising, single point]"
2,Clc1ccc(C(Cl)(Cl)Cl)c(Cl)c1,inactive
3,c1ccc(-c2ccccc2)cc1,"inconclusive: 69.2 µM [rising, single point]"
4,Cc1ccc(OP(=O)(Oc2ccc(C)cc2)Oc2ccc(C)cc2)cc1,"inconclusive: 27.3 µM [rising, full curve, poor fit]"
5,COc1ccc(C(CN(C)C)C2(O)CCCCC2)cc1 (configuration not stated),"inconclusive: 68.6 µM [cytotoxic, single point]"
6,CN(C)[C@@H]1C(=O)C(C(N)=O)=C(O)[C@@]2(O)C(=O)C3=C(O)c4c(O)cccc4[C@@](C)(O)[C@H]3C[C@@H]12,"inconclusive: 5.07 µM [rising, partial curve]"
7,O=c1ssc(Cl)c1Cl,active: 48.6 µM
8,Nc1ccccc1C(=O)OCCc1ccccc1,"inconclusive: 43.3 µM [rising, single point]"
9,Cc1c(COC(=O)[C@@H]2[C@H](/C=C(\Cl)C(F)(F)F)C2(C)C)cccc1-c1ccccc1,"inconclusive: 16.8 µM [cytotoxic, full curve] and inconclusive: 27.2 µM [cytotoxic, full curve]"
10,CC1(C)CC(=O)CC(C)(C)N1[O],inactive
11,COP(=O)(OC)C(O)C(Cl)(Cl)Cl (configuration not stated),"inconclusive: 2.46 µM [rising, single point]"
12,N#CN=C1SCCN1Cc1ccc(Cl)nc1,"inconclusive: 0.611 µM [rising, single point]"
13,Cc1ccc2cc3c(ccc4ccccc43)c3c2c1CC3,"inconclusive: 0.687 µM [rising, single point]"
14,CC(=O)c1cc(C(C)(C)C)cc2c1CCC2(C)C,active: 43.3 µM
15,Cc1cccc(Cc2cnc[nH]2)c1C,inactive
16,Sc1ccccc1,"inconclusive: 61.4 µM [rising, partial curve]"
17,O=C(N[C@H]1N=C(c2ccccc2F)c2cccc3c2N(CC3)C1=O)c1cc2ccccc2[nH]1,"inconclusive: 1.68 µM [cytotoxic, full curve, poor fit]"
18,Cc1cccc(N)c1N,"inconclusive: 0.154 µM [cytotoxic, single point]"
19,CCCCCCCCCCCCCCCl,"inconclusive: 21.8 µM [rising, partial curve, poor fit]"
20,O=Cc1ccccc1,"inconclusive: 25 µM [rising, partial curve]"
21,CN(C)C(=S)S,inactive and active: 27.1 µM and active: 2.73 µM
22,O=C/C=C/c1ccccc1,"inconclusive: 0.531 µM [rising, partial curve, poor fit]"
